Test results from paper PMC4336329 (PLoS ONE, 2015).
Out of some 310,000 compounds screened, about 14,000 (4.5%) showed an effect of 50% or more. The effect is printed as a negative number. This is one part of the list.

What follows are compounds tested against human ether-à-go-go-related gene (hERG) potassium channel (human, UniProt Q12809) (assay: primary screen, population patch clamp on CHO cells stably expressing hERG).
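Also: peak tail current of the secondary pulse compared with the same well before compound.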

human ether-à-go-go-related gene (hERG) potassium channel, sequence (Q12809 whole entry, looked up): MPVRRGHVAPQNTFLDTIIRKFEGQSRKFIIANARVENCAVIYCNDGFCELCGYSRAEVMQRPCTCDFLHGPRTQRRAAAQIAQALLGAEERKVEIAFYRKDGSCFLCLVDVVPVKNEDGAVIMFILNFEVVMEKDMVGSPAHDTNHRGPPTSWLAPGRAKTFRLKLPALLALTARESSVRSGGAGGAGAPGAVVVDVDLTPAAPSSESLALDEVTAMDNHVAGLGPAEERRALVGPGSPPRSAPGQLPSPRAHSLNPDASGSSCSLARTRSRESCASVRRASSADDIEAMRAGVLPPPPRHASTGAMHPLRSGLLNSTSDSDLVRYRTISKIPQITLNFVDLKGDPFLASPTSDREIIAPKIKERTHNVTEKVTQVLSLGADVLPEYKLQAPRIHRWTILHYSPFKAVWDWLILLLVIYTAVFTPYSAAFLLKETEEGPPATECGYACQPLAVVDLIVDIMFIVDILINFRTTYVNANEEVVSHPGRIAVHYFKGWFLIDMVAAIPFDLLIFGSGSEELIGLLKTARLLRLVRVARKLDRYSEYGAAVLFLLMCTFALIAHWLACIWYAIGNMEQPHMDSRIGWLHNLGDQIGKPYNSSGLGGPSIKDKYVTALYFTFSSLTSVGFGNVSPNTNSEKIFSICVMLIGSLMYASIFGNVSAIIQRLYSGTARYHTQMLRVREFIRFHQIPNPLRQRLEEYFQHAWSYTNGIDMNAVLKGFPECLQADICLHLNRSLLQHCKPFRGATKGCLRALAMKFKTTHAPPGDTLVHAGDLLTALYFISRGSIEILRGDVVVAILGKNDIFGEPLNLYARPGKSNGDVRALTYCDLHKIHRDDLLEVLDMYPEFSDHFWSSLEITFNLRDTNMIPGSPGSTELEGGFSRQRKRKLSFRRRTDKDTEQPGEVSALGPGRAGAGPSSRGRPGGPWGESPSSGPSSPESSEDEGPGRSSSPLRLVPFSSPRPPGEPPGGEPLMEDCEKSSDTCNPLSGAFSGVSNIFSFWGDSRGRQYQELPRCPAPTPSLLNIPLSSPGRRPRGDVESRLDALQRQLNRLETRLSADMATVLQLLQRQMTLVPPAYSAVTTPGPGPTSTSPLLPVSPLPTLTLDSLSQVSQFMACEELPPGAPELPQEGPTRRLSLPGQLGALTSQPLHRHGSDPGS

| SMILES | hERG current change (%, negative = inhibition) at 10uM |
| --- | --- |
| CC(C)n1nc(C(=O)Nc2nnc(C3CC3)s2)c2ccccc2c1=O | 11.8% |
| O=C(COC(=O)c1ccc(Br)o1)Nc1nc2c(F)c(F)c(F)cc2s1 | 4.26% |
| CC(C)CNC(=O)CSc1nnc(-c2ccc(Cl)cc2)n1N | -2.99% |
| CCOCC(=O)Nc1c(C)n(C)n(-c2ccccc2)c1=O | 11% |
| O=C(CC1C(=O)NCCN1C(=S)Nc1ccccc1)Nc1ccc2c(c1)OCCO2 (stereo not drawn) | -15.2% |
| COc1ccc(C(C(=O)NC2CCCC2)N(Cc2ccccc2)C(=O)c2snc(C(N)=O)c2N)cc1OC (stereo not drawn) | -1.93% |
| CCCn1c2ccc(/C(C)=N\O)cc2c2cc(/C(C)=N/O)ccc21 | 11.4% |
| O=C(Nc1ccccc1)Nc1nc(-c2ccccc2)cs1 | 13.1% |
| CCOc1ccc(C(=O)Nc2nnc(S(=O)(=O)N(C)Cc3ccco3)s2)cc1 | 9.14% |
| Cn1c(=O)[nH]c(=O)c2c1nc(N1CCN(CCO)CC1)n2CCSc1nc2ccccc2s1 | -2.38% |
| CC(C)N1C(=O)C(=O)N(CC(=O)N2CCc3ccccc32)C1=O | -1.41% |
| O=C(NCc1ccc(Cl)cc1)c1cc(-c2ccco2)on1 | 7.82% |
| COCCOC(=O)C1=C(N)OC2=C(C(=O)CC(C)(C)C2)C1c1ccncc1 (stereo not drawn) | 4.08% |
| Cc1cc(OCc2cc(C(=O)NC(C)c3c(C)nn(C)c3C)no2)cc(C)c1Cl (stereo not drawn) | -32.2% |
| CC(C)(C)/C(COc1ccccc1[N+](=O)[O-])=N/O | -31.9% |
| CCC(=O)N(c1nnc(SCC(=O)NN2C(=O)NC3(CCC(C)CC3)C2=O)s1)C1CC1 (stereo not drawn) | -5.47% |
| COc1ccccc1NC(=O)NN1CCCCC1 | -18.6% |
| Cc1cccc(NC(=O)c2ccc(-n3cncn3)c([N+](=O)[O-])c2)c1 | -35.7% |
| O=C(Nc1ccc2oc(-c3ccccc3F)nc2c1)c1ccccc1F | -0.55% |
| Cc1c(CN2CCC(n3nccc3NC(=O)c3cccc(F)c3)CC2)cnn1C | 9% |
| COc1ccc(-c2nn(-c3ccccc3)cc2/C=C2/SC(=S)N(CCC(=O)O)C2=O)cc1 | 10.2% |
| CCCc1cc(=O)oc2cc(OC(C)C(=O)NCC3CCC(C(=O)O)CC3)ccc12 (stereo not drawn) | 22.3% |
| Cc1ccc(N2C(=O)N(CC(=O)Nc3ccccc3C)C(=O)C2C)cc1 (stereo not drawn) | -2.59% |

| SMILES | hERG current change (%, negative = inhibition) at 10uM |
| --- | --- |
| O=C(NCc1ccc(F)cc1)c1noc2c1CCCC2 | -10.5% |
| Cc1ccc(S(=O)(=O)N2CCCN(S(=O)(=O)c3ccc(C(F)(F)F)cc3)CC2)cc1 | 1.34% |
| Cc1nsc2c1ccc1ccccc12 | 11.1% |
| Cc1snc(SCc2c(F)cccc2Cl)c1C#N | 12.2% |
| COc1ccc([C@H]2CC(=O)C=C(c3ccc(OC(F)(F)F)cc3)C2)cc1OC | -9.6% |
| CC1CN(C(c2cccs2)c2sc3ncnn3c2O)CC(C)O1 (stereo not drawn) | 19.5% |
| COc1cccc(/C(O)=C2/C(=O)C(=O)N(CCN(C)C)C2c2ccccn2)c1 (stereo not drawn) | -13.8% |
| CCOC(=O)CCCNC(=O)CCNC(=O)c1ccc(OC)cc1 | -2.74% |
| CC(CNC(=O)CC(C)(C)C)NC(=O)CC(C)(C)C (stereo not drawn) | 11% |
| CC1CCCN(C(=O)CCNC(=O)Cn2cnc3ccccc3c2=O)C1 (stereo not drawn) | 18.4% |
| CCCCC(=O)NCc1ccc(Cl)cc1 | 0.991% |
| COc1ccc(-c2c(-c3cc(OC)c(OC)c(OC)c3)noc2C)cn1 | -19.6% |
| Cc1ccc(SCC(=O)OCc2csc(CC(=O)Nc3ccccc3C)n2)cc1C | -4.65% |
| O=C(Nc1ccc(NC(=O)c2cccc([N+](=O)[O-])c2)cc1)c1cccc([N+](=O)[O-])c1 | 6.62% |
| O=[N+]([O-])c1ccc(NC(=S)NCCc2ccc(Cl)cc2)cc1 | -6.71% |
| O=C(Nc1cccc(S(=O)(=O)N2CCCCC2)c1)c1ccc(OCC2CCCO2)cc1 (stereo not drawn) | -6.54% |
| C=CCNC(=O)c1ccc(-c2ccc([N+](=O)[O-])cc2)o1 | -49.1% |
| Cc1sc(NC(=O)CN2CCN(c3ccccn3)CC2)c(C#N)c1C | 2.51% |
| O=S(=O)(Nc1ccncc1)c1ccc(Cl)cc1 | -6.96% |
| COc1ccc(N2CCN(S(=O)(=O)c3ccc(C(=O)NC4CCCC4)cc3)CC2)cc1 | -13.1% |
| CCOc1ccc(NCC(=O)Nc2ccc(Cl)cc2C)cc1 | -14.7% |
| Cc1ccc(-c2csc(NC(=O)CSC3=NCCS3)n2)cc1 | 12.6% |
